Results from PubChem BioAssay AID504706 (National Center for Advancing Translational Sciences (NCATS), 2011).
In all, about 320,000 compounds went through this assay and about 200 (0.062%) were called active. The inconclusive results got no clear call from the source; some entries with a clear call stand among them for comparison. Calls follow the shape of the dose curve; as a rule, active = well fitted activation curve with a large enough effect; inconclusive = small, poorly fitted or top-dose-only effect; inactive = no such curve, though single readings can be large or run the other way. No potency is given beside an inconclusive call; the fits are too rough.

experiment: qHTS assay for re-activators of p53 using a Luc reporter; settings: H1299 p53-A138V BP100-luciferase reporter, luminescence, 24 h; series mostly up to 92.2 µM; also: nearly all actives have a fitted effect of over 45% in size
Outline: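 H1299 (p53-null), stable ts p53-A138V + BP100-Luc; 1000 cells/well, Opti-MEM/10% FBS; cpd 4 pt, 1:5; 24 h, 37 deg C, 5% CO2; detection reagent 10 min RT; luminescence.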
Potency is read from the fitted curve at half-maximal effect; tags tell the direction and shape of the fitted curve.

| Compound | Potency |
| --- | --- |
| COc1ccc(/C=N/Nc2nc3ccccc3o2)cc1O | inconclusive [activator, full curve, poor fit] |
| Cc1cc(C(=O)NNc2ccc(F)cc2)no1 | inactive |
| COc1cc(O)oc1C=Nc1ccc(Oc2ccccc2)cc1 | inconclusive [activator, single point] |
| Cc1ccc(/C=C2/Sc3ccc(C(=O)NCc4ccccn4)cc3NC2=O)cc1 | inactive |
| O=C(Nc1nc2ccc(F)cc2s1)c1cccs1 | inconclusive [activator, partial curve, poor fit] |
| CC(=O)c1ccc(-c2nc3ccccc3n2C)o1 | inconclusive [activator, full curve, poor fit] |
| O=C1CC(SCCO)C(=O)N1c1ccccc1 (stereo not drawn) | inactive |
| CC(=O)c1cc(NC(=O)c2ccc(C)cc2)c(=O)oc1C | inconclusive [activator, single point] |
| O=C(O)c1cccnc1C(=O)O | inactive |
| COc1ccc(Nc2nc(NCC3CCCO3)c3ccccc3n2)c(OC)c1 (stereo not drawn) | inactive |
| COc1ccc(/C=C2\SC(=O)N(CCNC(=O)Cn3cnnn3)C2=O)cc1 | inconclusive [activator, partial curve, poor fit] |
| Cc1ccc(NC2CCCN(C(=O)c3ccc4nccnc4c3)C2)cc1C (stereo not drawn) | inactive |
| COc1ccc(NC(=O)CN(C)S(=O)(=O)c2ccccc2)cc1 | inconclusive [activator, partial curve, poor fit] |
| NS(=O)(=O)c1ccc(NC(=O)CSc2nnc(C3CC3)n2C2CC2)cc1 | inconclusive [activator, full curve, poor fit] |
| Cc1ccc(NC(=O)c2ccc(OC(=O)COc3ccc(Cl)c(C)c3)cc2)cc1 | inconclusive [activator, full curve, poor fit] |
| Cc1cc(C(=O)NNC(=S)Nc2cccc(C(F)(F)F)c2)nn1C | inactive |
| COc1cccc(C(=O)NCCC2=CCCCC2)c1OC | inconclusive [activator, partial curve, poor fit] |
| CCOC(=O)c1c(C)nc(-c2ccccc2)nc1N | inconclusive [activator, full curve, poor fit] |
| COc1cccc(C(=O)Nc2ccc(NC(=O)c3ccco3)cn2)c1 | inconclusive [activator, full curve, poor fit] |
| O=C(NC(=S)NCC1CCCO1)c1ccc(Cl)cc1Cl (stereo not drawn) | inconclusive [activator, single point] |
| COc1cc(CC(=O)NCc2ccc3c(c2)OCO3)cc(OC)c1OC | inactive |
| COC(=O)c1oc2ccc(OC)cc2c1N | inconclusive [activator, partial curve, poor fit] |
| CC(C)NC(=O)c1cc(-c2ccc(Br)cc2)on1 | inconclusive [activator, partial curve, poor fit] |

| Compound | Potency |
| --- | --- |
| CCOCCCNC(=O)CN1C(=O)CSc2cc(S(=O)(=O)N3CCCCCC3)ccc21 | inactive |
| Cc1ccnc(NC(=O)c2cccc(S(=O)(=O)N3CCCc4ccccc43)c2)c1 | inactive |
| COc1cc(/C=C2\SC(=S)N(Nc3ccccc3)C2=O)ccc1O | inconclusive [activator, full curve, poor fit] |
| Cc1ccc(CSCc2ccc(C(=O)NC3CC3)o2)cc1 | inconclusive [activator, single point] |
| Cc1ccc(Nc2nnc(SCC(=O)c3c(N)n(C4CC4)c(=O)[nH]c3=O)s2)cc1C | inconclusive [activator, partial curve, poor fit] |
| CC1(C)Cc2nc3sc4c(SCC(=O)NCc5ccccc5)ncnc4c3cc2CO1 | inconclusive [activator, partial curve, poor fit] |
| Cc1ccc(S(=O)(=O)Nc2cccc(C(=O)NCc3cccnc3)c2)cc1F | inactive |
| CN1CCN(CC(O)(c2ccc(Cl)cc2)c2ccc(Cl)cc2)CC1 | inactive |
| COc1ccccc1OCCCOc1ccc(C)cc1Br | inconclusive [activator, partial curve, poor fit] |
| COc1ccc(S(=O)(=O)N2CCC(n3cnc4cc(C(F)(F)F)ccc43)CC2)cc1 | inactive |
| O=C(NC(=S)NC1CCCCC1)c1ccccc1[N+](=O)[O-] | inconclusive [activator, partial curve, poor fit] |
| Nc1c(C(=O)NCCN2CCOCC2)c2nc3ccccc3nc2n1-c1ccc2c(c1)OCO2 | inconclusive [activator, single point] |
| COc1ccc(OC)c(NC(=O)CSc2nc3n[nH]c(C)c3c(=N)n2-c2cccc(Cl)c2C)c1 | inactive |
| Cc1cccc(/C=N/NC(=O)CNc2cccc3ccccc23)n1 | inconclusive [activator, partial curve, poor fit] |
| Cc1cc(Cl)c2oc(C(=O)N(C)C3CCOC3)c(C)c2c1 (stereo not drawn) | inconclusive [activator, partial curve, poor fit] |
| CCn1cc(CNC(=O)NC2CCCCC2)c(C)n1 | inconclusive [activator, partial curve, poor fit] |
| COc1c(F)c(F)c(C(=O)Nc2ccc(N3CCN(C(C)=O)CC3)c(Cl)c2)c(F)c1F | inactive |
| CCn1c(SCc2nc3ccccc3[nH]2)nnc1-c1cccs1 | inconclusive [activator, single point] |
| O=C1/C(=C/c2ccc(F)cc2)CCC1C1CCCC1 (stereo not drawn) | inconclusive [activator, partial curve, poor fit] |
| O=C(Nc1ccc(F)cc1)c1nsc(Cl)c1Cl | inconclusive [activator, partial curve, poor fit] |
| COc1ccc(-c2nn(-c3ccccc3)cc2C(=O)Nc2cccc(C(=O)O)c2)cc1[N+](=O)[O-] | inactive |
| CCN(CCO)C1CC(=O)N(c2ccccc2C)C1=O (stereo not drawn) | inconclusive [activator, single point] |
| CN1C(=S)N(c2cccnc2)C(=O)/C1=C\c1ccc(N(C)C)cc1 | inactive |

| Compound | Potency |
| --- | --- |
| COc1cc(/C=C/C(=O)Nc2nnc(CC(C)(C)C)s2)cc(OC)c1OC | inactive |
| CC(=O)Nc1ccc(SCCN2CC[C@@H](C(C)(C)C)CCC2=O)cc1 | inconclusive [activator, full curve, poor fit] |
| O=C(CN1CCCC1)Nc1ccc(-c2nc3cc(NC(=O)CN4CCCC4)ccc3o2)cc1 | inconclusive [activator, partial curve, poor fit] |
| CCOC(=O)C(CC)Sc1nc2c(c(=O)[nH]c(=O)n2C)n1C/C=C(/C)Cl (stereo not drawn) | inconclusive [activator, single point] |
| Cc1ccc2cc(CCNC(=O)c3ccco3)c(=O)[nH]c2c1 | inconclusive [activator, partial curve, poor fit] |
| CCC(C)(C)c1nnc(NC(=O)c2cccc([N+](=O)[O-])c2)s1 | inconclusive [activator, partial curve, poor fit] |
| CCOc1ccccc1C(=O)Nc1cccc(-c2ccc(N3CCOCC3)nn2)c1 | inconclusive [activator, full curve, poor fit] |
| COc1cc(/C=C2/CCc3ccccc3C2=O)cc(OC)c1OC | inconclusive [activator, partial curve, poor fit] |
| CCC(=O)Nc1cccc(-c2ccc(N3CCCCC3)nn2)c1 | inconclusive [activator, partial curve, poor fit] |
| COCCn1c(C)cc(C(=O)COC(=O)c2ccc(S(=O)(=O)N(C)C)cc2)c1C | inactive |
| CCN1C(=O)c2ccc(C(=O)Nc3c(C)cc(C)cc3C)cc2C1=O | inconclusive [activator, partial curve, poor fit] |
| CSCc1ccc(C(=O)Nc2cccc(C)c2C)cc1 | inconclusive [activator, full curve, poor fit] |
| COc1ccccc1OCC(=O)NNC(=O)CCCC(=O)NNC(=O)COc1ccccc1OC | inconclusive [activator, single point] |
| CCOc1ccc(NC(=O)C(c2ccccn2)N(C(=O)CCl)c2ccc(OCC)cc2)cc1 (stereo not drawn) | inconclusive [activator, full curve, poor fit] |
| Cc1ccc(NC(=O)CSc2ccccc2NC(=O)c2ccccc2)cc1Cl | inconclusive [activator, full curve, poor fit] |
| c1cncc(-c2nnc3sc(-c4ccco4)nn23)c1 | inactive |
| CCOc1ccc(NC(=S)NC(=O)/C=C/c2ccc(OC)cc2)c([N+](=O)[O-])c1 | inconclusive [activator, full curve] |
| CC(C)(C)C1CCc2[nH]c3ccccc3c(=O)c2C1 (stereo not drawn) | inconclusive [activator, single point] |
| COc1cc(/C(C)=N/N2CCN(c3ccccc3OC)CC2)ccc1O | inconclusive [activator, partial curve, poor fit] |
| COc1ccc(S(=O)(=O)N2CCOCC2)cc1NC(=O)Cc1c(Cl)cccc1Cl | inactive |
| CCN(CC)CCn1c2c(c(SCC(=O)Nc3ccccc3Cl)nc1=O)CCC2 | inactive |
| CN(C)S(=O)(=O)c1ccc(C(=O)NCCOc2ccccc2)cc1 | inconclusive [activator, full curve] |
